PubChem BioAssay AID651820 (National Center for Advancing Translational Sciences (NCATS), 2012)
About 12,000 (3.5%) of roughly 340,000 compounds were called active. Inconclusive results, whose numbers are uncertain, are shown with a selection of clear calls. Calls follow the shape of the dose curve; as a rule, active = well fitted inhibition curve with a large enough effect; inconclusive = small, poorly fitted or top-dose-only effect, or another doubt; inactive = no such curve, though single readings can be large or run the other way. No potency is given beside an inconclusive call; the fits are too rough.

Experiment: qHTS Assay for Inhibitors of Hepatitis C Virus (HCV)
Settings: Huh7.5.1 HCVcc-Cre (HCVcc is cell-culture hepatitis C virus) infection, luciferase reporter, 44 h; activity change, negative = inhibition: at 41.8 µM (top of the series) unless noted
Method in brief: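 Luciferase read-out (15 sec integration) after a 15 min room-temperature substrate step quantifies HCVcc-Cre infection. Cells, 1,000 per well, had compound added 4 h post-plating, then virus at ~0.5 moi, and were cultured 44 h.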
% is scaled to controls: 0 for no effect and ±100 for the full control effect; potency is read from the fitted curve at half-maximal effect; tags tell the direction and shape of the fitted curve.

With `CCCCNc1c(C(=O)OCC)c(C)nc2c1cnn2CC` as the compound, how does the Potency read?
Its Potency is inconclusive [inhibitor, partial curve].

For `COc1cc(/C=N/NC(=O)c2cccnc2)ccc1OCC(=O)Nc1ccc(C)cc1`, which “activity change, negative = inhibition” value is on record?
The value was inactive: -8.85%.

For `O=C(/C=C/c1cccc([N+](=O)[O-])c1)N1CCN(c2ccccn2)CC1`, which “activity change, negative = inhibition” value is on record?
Its value is inactive: 5.35%.

With `C=C1CC(C)OC(c2ccccc2OCC(O)CN2CCCCC2)C1` (stereo unspecified) as the compound, how does the “activity change, negative = inhibition” value read?
The value was inactive: -20.1%.

With `CC1CCN(c2ccc(S(=O)(=O)N3CCC(C)CC3)cc2N)CC1` as the compound, how does the Potency read?
Its Potency is inconclusive [inhibitor, partial curve].

Which Potency does the source give for `COc1ccc2ccccc2c1/C=N/NC(=O)c1cccc(C)c1` here?
Its Potency is active: 11.2 µM.

Which Potency does the source give for `CCc1ccc(OCC(=O)NN2Cc3ccccc3C2=N)cc1` here?
The Potency was inconclusive [inhibitor, single point].

Which “activity change, negative = inhibition” value does the source give for `COc1ccc(S(=O)(=O)N(C)CC(=O)N2CCN(C)CC2)cc1Cl` here?
The value was inactive: 7.86%.

Which Potency does the source give for `COc1cc(OC)cc(C(=O)Oc2ccc(/C=N/Nc3nc4ccccc4s3)cc2OC)c1` here?
Its Potency is inconclusive [inhibitor, partial curve].

For `CC(C)Sc1nnc(NC(=O)c2ccco2)s1`, which “activity change, negative = inhibition” value is on record?
The value was inactive: 16%.

Which “activity change, negative = inhibition” value does the source give for `COc1ccc2oc(=O)c(C(=O)N3CCN(C(=O)c4ccccc4)CC3)cc2c1` here?
The value was inactive: 5.82%.

For `CCCn1c(C2CCCN2c2nc(-c3ccc(C)cc3)cs2)nc2ccccc21` (stereo unspecified), which Potency is on record?
Its Potency is inconclusive [inhibitor, partial curve].

For `COc1ccccc1C(=O)NC(C(=O)NCCc1nc2ccccc2[nH]1)=C(C)C`, which “activity change, negative = inhibition” value is on record?
The value was inactive: -9.34%.

With `CCOc1ccc(NC(=O)CC(=O)Nc2ccc(OCC)cc2)cc1` as the compound, how does the “activity change, negative = inhibition” value read?
The value was inactive: 6.32%.

With `Cc1oc(C(C)(C)C)cc1C(=O)Nc1ccc(N2CCOCC2)cc1` as the compound, how does the Potency read?
The Potency was inconclusive [inhibitor, partial curve].

With `COc1ccc(NC(=O)COCC(=O)Nc2ccc(C)cc2)cc1` as the compound, how does the “activity change, negative = inhibition” value read?
Its value is inactive: 21.1%.

For `COc1ccc(CC(=O)Oc2cc(C)ccc2C)cc1`, which “activity change, negative = inhibition” value is on record?
The value was inactive: 13.9%.

For `COc1cc(-c2noc(C)c2C(=O)NCc2ccc3c(c2)OCO3)cc(OC)c1OC`, which Potency is on record?
Its Potency is inconclusive [inhibitor, partial curve].

For `CC(OC(=O)c1cc(=O)[nH]c2ccccc12)C(=O)NCc1ccccc1` (stereo unspecified), which “activity change, negative = inhibition” value is on record?
Its value is inactive: -1.1%.

For `CCCOc1ccc(-c2c(C(=O)N/N=C/c3ccc(C)o3)nnn2-c2nonc2N)cc1`, which Potency is on record?
The Potency was inconclusive [inhibitor, partial curve].

For `CN(CCCC(=O)Nc1nccs1)S(=O)(=O)c1ccc(Cl)cc1`, which Potency is on record?
The Potency was inconclusive [inhibitor, single point].

Which Potency does the source give for `COc1cc(C(=O)N2CCN(c3ccccc3F)CC2)ccc1OCC(=O)N1CCOCC1` here?
The Potency was inconclusive [inhibitor, single point].

With `CCOC(=O)C1CCCN(S(=O)(=O)c2ccc3c4c(cccc24)C(=O)N3CC)C1` (stereo unspecified) as the compound, how does the Potency read?
Its Potency is inconclusive [inhibitor, single point].

With `CCOc1ccc(NC(=O)Cc2ccccc2)cc1` as the compound, how does the “activity change, negative = inhibition” value read?
Its value is inactive: -27.1%.

With `CCN(CC)c1ccc(C=Nc2ccc(N(C)C)cc2)c(O)c1` as the compound, how does the Potency read?
Its Potency is inconclusive [inhibitor, single point].

Which “activity change, negative = inhibition” value does the source give for `Cc1[nH]c(=O)[nH]c(=O)c1S(=O)(=O)N1CCCC(C(=O)N2CCN(c3cccc(C(F)(F)F)c3)CC2)C1` (stereo unspecified) here?
Its value is inactive: 15.3%.

With `COc1cc(OC)cc(C(=O)Nc2ccc(C(=O)c3ccncc3)cc2)c1` as the compound, how does the Potency read?
Its Potency is inconclusive [inhibitor, partial curve].

Which Potency does the source give for `CC1CCN(c2nnc(-c3cccs3)c3ccccc23)CC1` here?
Its Potency is inconclusive [inhibitor, partial curve].

Which “activity change, negative = inhibition” value does the source give for `CCOC(=O)c1c(C)oc2c(CN3CCN(C)CC3)c(Br)c(OC)c(O)c12` here?
Its value is inactive: -1.24%.

For `CCCc1cc(=O)n2[nH]cc(-c3ccc(Cl)cc3)c2n1`, which Potency is on record?
The Potency was inconclusive [inhibitor, partial curve, poor fit].

For `CCN1CCCC1CNC1=NCCCCC1` (stereo unspecified), which “activity change, negative = inhibition” value is on record?
Its value is inactive: 4.18%.

With `O=C1/C(=C/c2ccccc2)SC(=S)N1CCCC(=O)N1CCCCC1CCO` (stereo unspecified) as the compound, how does the Potency read?
Its Potency is inconclusive [inhibitor, partial curve].

For `CC(C)C[C@H]1CNC(=S)N1CC1CCN(CCCC2CCCC2)CC1`, which Potency is on record?
The Potency was inconclusive [inhibitor, single point].

With `OCCc1c[nH]c2ccc(OCc3ccccc3)cc12` as the compound, how does the Potency read?
The Potency was inconclusive [inhibitor, single point].

With `O=C(c1ccccc1)C1CCN(C(=O)c2c(F)cccc2F)CC1` as the compound, how does the “activity change, negative = inhibition” value read?
The value was inactive: 8.33%.

With `O=C1c2ccccc2C(=O)c2c(NCc3cccnc3)cccc21` as the compound, how does the Potency read?
Its Potency is inconclusive [inhibitor, partial curve].

For `CCCCOc1ccc(CSCCN=C(N)N)cc1`, which Potency is on record?
Its Potency is inconclusive [inhibitor, partial curve, poor fit].

For `COc1cc(OC)c(C(=O)NCc2cccnc2)cc1OC`, which “activity change, negative = inhibition” value is on record?
The value was inactive: 31.5%.

With `Cc1ccc(/C=N/NC(=O)Cc2c(F)cccc2Cl)s1` as the compound, how does the “activity change, negative = inhibition” value read?
Its value is inactive: -20.5%.

With `Cc1cccc(NC(=O)[C@H](Cc2c[nH]c3ccccc23)NC(=O)[C@@H]2Cc3ccccc3CN2)c1` as the compound, how does the Potency read?
Its Potency is active: 3.98 µM.

With `CN(C)CCN(C(=O)c1cccc(Cl)c1)c1nc2c(Cl)cccc2s1` as the compound, how does the Potency read?
The Potency was inconclusive [inhibitor, single point].

For `O=C1/C(=C\c2cc(Br)cc(Br)c2O)SC(=S)N1Cc1ccccc1`, which Potency is on record?
Its Potency is inconclusive [inhibitor, single point].

For `O=S(=O)(NCC1CCCO1)c1ccc(-c2ccc(S(=O)(=O)NCC3CCCO3)cc2)cc1` (stereo unspecified), which Potency is on record?
The Potency was inconclusive [inhibitor, full curve, poor fit].

With `COc1ccc(Nc2nc(-c3ccccc3)c3ccccc3n2)cc1` as the compound, how does the Potency read?
Its Potency is inconclusive [inhibitor, single point].

For `CNc1nc(C)c(C(=O)c2ccc(Cl)cc2)s1`, which Potency is on record?
The Potency was inconclusive [inhibitor, partial curve].

For `CCN(C(=O)COC(=O)/C=C/c1cccc([N+](=O)[O-])c1)c1ccccc1`, which “activity change, negative = inhibition” value is on record?
Its value is inactive: 0.913%.

Which Potency does the source give for `FC(F)(F)c1cccc(N2CCN(C(=S)NC3CCCCC3)CC2)c1` here?
The Potency was inconclusive [inhibitor, single point].

With `COc1ccc(-c2cc(C(=O)NCCCn3ccnc3)no2)cc1OC` as the compound, how does the “activity change, negative = inhibition” value read?
Its value is inactive: 19.2%.

For `COCc1ccc(O)c2ncccc12`, which Potency is on record?
Its Potency is active: 5.62 µM.

For `O=S(=O)(NCc1ccccc1)NCc1ccccc1F`, which “activity change, negative = inhibition” value is on record?
Its value is inactive: 3.32%.

For `CCN(CC)CCCNc1cc(C)nc2cc(-c3cccs3)nn12`, which Potency is on record?
The Potency was inconclusive [inhibitor, partial curve].

Which “activity change, negative = inhibition” value does the source give for `CCOc1cc(/C=N/NC(=O)c2ccccn2)ccc1OC(=O)c1ccc(F)cc1` here?
Its value is inactive: 20.6%.

For `CCOc1ccc(CNC(=S)N/N=C\c2ccc([N+](=O)[O-])cc2)cc1`, which “activity change, negative = inhibition” value is on record?
Its value is inactive: -0.256%.

For `COCCNC(=O)c1cc(-c2cccs2)on1`, which Potency is on record?
The Potency was inconclusive [inhibitor, partial curve].

Which Potency does the source give for `Nc1nc(Sc2ccc([N+](=O)[O-])c3nonc23)c2[nH]cnc2n1` here?
The Potency was active: 2.82 µM.

Which Potency does the source give for `COc1ccc(NS(=O)(=O)c2ccc(C(=O)N3CCN(c4ccc(F)cc4)CC3)cc2)cc1` here?
The Potency was inconclusive [inhibitor, single point].

With `Cc1ccc2c(C)c(C(=O)N3CCN(Cc4ccc5c(c4)OCO5)CC3)oc2c1C` as the compound, how does the Potency read?
The Potency was active: 11.2 µM.

Which Potency does the source give for `COCC(C)NC(=O)CSc1nc(-c2ccccc2)c(-c2ccccc2)o1` (stereo unspecified) here?
The Potency was inconclusive [inhibitor, single point].

With `CSc1nc2cc(Oc3cccc(Cl)c3Cl)c(Cl)cc2[nH]1` as the compound, how does the Potency read?
The Potency was active: 7.94 µM.

For `Cc1cc(/C=N/n2cnnc2)c(C)n1-c1ccc(OCc2ccccc2F)cc1`, which Potency is on record?
The Potency was inconclusive [inhibitor, single point].

Which Potency does the source give for `CCOC(=O)c1ccc(NC(=S)NCCc2ccc(F)cc2)cc1` here?
The Potency was active: 11.2 µM.

Which Potency does the source give for `COc1ccc(-c2nc(NCCCN(C)C)c3ccccc3n2)cc1` here?
Its Potency is inconclusive [inhibitor, single point].

Which Potency does the source give for `CC1CCCN(CCCNC(=O)c2cc3c(Cl)nc4ccccc4c3s2)C1` (stereo unspecified) here?
The Potency was active: 12.6 µM.

For `C/C(Cl)=C/Cn1c(N2CCCC2)nc2c1c(=O)n(C)c(=O)n2C`, which Potency is on record?
Its Potency is inconclusive [inhibitor, single point].

With `Cc1cccc(N(CC(=O)N2CCCCCC2)S(C)(=O)=O)c1` as the compound, how does the “activity change, negative = inhibition” value read?
The value was inactive: 13.9%.

With `CCc1cccc(CC)c1NC(=S)NCCc1c(C)[nH]c2ccc(C)cc12` as the compound, how does the Potency read?
The Potency was active: 22.4 µM.

For `COc1ccccc1C(=O)NC(=O)COC(=O)c1nccnc1N`, which “activity change, negative = inhibition” value is on record?
The value was inactive: -5.34%.

For `O=S(=O)(Nc1ccc(Br)cc1)c1cccc(NC(=S)NCCN2CCOCC2)c1`, which Potency is on record?
The Potency was inconclusive [inhibitor, single point].

With `CC(CC(=O)N1CCN(c2ccccc2)CC1)S(=O)(=O)c1ccc2c(c1)NC(=O)CO2` (stereo unspecified) as the compound, how does the Potency read?
The Potency was inconclusive [inhibitor, single point].

Which Potency does the source give for `c1ccc(-c2nn3c(Cn4cnc5ccccc54)nnc3s2)cc1` here?
Its Potency is inconclusive [inhibitor, single point].

Which Potency does the source give for `CCCCS(=O)(=O)Nc1ccc(Cc2ccncc2)cc1` here?
The Potency was inconclusive [inhibitor, single point].

For `COc1ccc(/C=N\NC(=O)c2ccccc2Br)cc1COc1ccccc1`, which Potency is on record?
The Potency was active: 14.1 µM.

Which Potency does the source give for `Cc1cc(C)c2nc(N3C(=O)C(O)=C(C(=O)c4ccco4)C3c3cccc(O)c3)sc2c1` (stereo unspecified) here?
The Potency was inconclusive [inhibitor, partial curve].

For `CC(=O)c1c(C)[nH]c(C(=O)Nc2ccc(F)c(F)c2F)c1C`, which Potency is on record?
The Potency was inconclusive [inhibitor, single point].

For `COc1ccccc1C(C#N)c1cccc(Cl)n1` (stereo unspecified), which “activity change, negative = inhibition” value is on record?
Its value is inactive: 0.376%.

With `O=C(Nc1ccc2nc(-c3ccco3)[nH]c2c1)c1cccs1` as the compound, how does the Potency read?
The Potency was inconclusive [inhibitor, single point].
